Test results as given in the RNAGym collection of RNA variant scans (doi:10.1093/nar/gkz1192).
The source gives no read counts; variants with many changes may rest on few reads.

B1: CPEB3 Ribozyme (parent)
chain: UAACAGGGGGCCACAGCAGAAGCGUUCACGUCGCAGCCCCUGUCAGAUUCUGGUGAAUCUGCGAAUUCUGCUGUAUAUCUC

Variants of: B1
Experiment: self-cleavage, relative activity (ratio to wild type); higher = more cleavage; in vitro, sequencing
In short: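 For each CPEB3 ribozyme variant, relative activity is its cleaved/total read fraction divided by the unmutated ribozyme's. Barcoded error-prone PCR libraries were transcribed by T7 RNA polymerase (5 hours, 37°C) and held in DNase I for 15 min before an EDTA stop, with cleavage occurring throughout. Template-switching reverse transcription and Illumina sequencing were used to read the RNAs. A 5-read minimum applied, and results are the mean of three batches.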

Row | Variant | self-cleavage
1 | UAACAGGGGGCCACAGCAGAGGCGAUCACGUAGCAGGCCCUGUCAGAUUCUGGUGAAUCUGCGAAUUCUACUGUAUAUCUC [A21G U25A C32A C37G G70A] | 0.05
2 | UAACAGGGGGCCACAGCAGAGGCGAUCACGUCGCAGCACCUGUCAGAUUCUGGUGAAUCUGCGAAUUCUGCUGUAUAUCUC [A21G U25A C38A] | 0.12
3 | UAACAGGGGGCCACAGCAGAGGCGAUCACGUCGCAGCCCCUAUCAGAUCCUGGUGAAUCUGCGAAUUCUGCUGUAUAUCUC [A21G U25A G42A U49C] | 0.06
4 | UAACAGGGGGCCACAGCAGAGGCGAUCACGACGCAGCCCCUGCCAGAUUCUGGCGAAUCUGCGAAUUCUGCUGUAUAUCUC [A21G U25A U31A U43C U54C] | 0.21
5 | UAACAGGGGGCCACAGCAGAGGCGAUCACGUCGCAGCCCCCGUCAGAUUCUGGUGAGUCUGCGAAUUCUGCUGUAUAUCUC [A21G U25A U41C A57G] | 0.07
6 | UAACAGGGGGCCACAGCAGAGGCGAUCACGUCGCAGCCCCUGUCAGACUCUGGUGAAUCUGCGAAUUCAGCUGUAUAUCAC [A21G U25A U48C U69A U80A] | 0.05
7 | UAACAGGGGGCCACAGCAGAGGCGAUCACGUCGCAGCCCCUGUCAGAUUCCGGUGAAUCUGCGAAUUCUGCUGUAUAUCUC [A21G U25A U51C] | 0.18
8 | UAACAGGGGGCCACAGCAGAGGCGAUCACGUCGCAGCCCCUGUCAGAUUCUGGUGAAUCCGCGAGUUCUGCUGUAUAUCUC [A21G U25A U60C A65G] | 0.01
9 | UAACAGGGGGCCACAGCAGAGGCGAUCACGUCGCAGCCCCUGUCAGAUUCUGGUGAAUCUGCGAAUUCCGCUGUAUAAAUC [A21G U25A U69C U78A C79A] | 0.08
10 | UAACAGGGGGCCACAGCAGAGGCGAUCACGUCGCAGCCCCUGUCAGAUUCUGGUGAAUCUGCGAAUUCUGCAGUAUAUCUC [A21G U25A U72A] | 0.18
11 | UAACAGGGGGCCACAGCAGAGGCGCUCACGUCGCAGCCCCUGUCCUAUUCUGGUGAAUCUGCGAAUUCUGCUGUAUAUCUC [A21G U25C A45C G46U] | 0.12
12 | UAACAGGGGGCCACAGCAGAGGCGCUCAGGUCGCUGCCCCUGUCAGAUUCUGGUGAGUCUGCGAAUUCUGCUGUAUAUCCC [A21G U25C C29G A35U A57G U80C] | 0.05
13 | UAACAGGGGGCCACAGCAGAGGCGCUCACGUAGCAGCCCCUGUCAGACUCUGGUGAAUCUGCGAAUUCUGCUGUAUAUCUC [A21G U25C C32A U48C] | 0.04
14 | UAACAGGGGGCCACAGCAGAGGCGCUCACGUCGCAGCCCCUGUCAGAUUCUGGUGAAUCUGCGAAUUAUGCUGUAUAUCUC [A21G U25C C68A] | 0.31
15 | UAACAGGGGGCCACAGCAGAGGCGCCCUCGUCGCAGCCCCUGCCAGAUUCUGGUGAAUCUGCGAAUUCUGCAGUAUAUCUC [A21G U25C U26C A28U U43C U72A] | 0.19
16 | UAACAGGGGGCCACAGCAGAGGCGCCCACGUCGCAGCCCCCGUCAGAUUCUGGUGAAUCUGCGAAUUCUGCUGUAUAUCUC [A21G U25C U26C U41C] | 0.08
17 | UAACAGGGGGCCACAGCAGAGGCGCUCACGUCGCAGCCCCUGUCAGAUUCUGGAGAAUCUGCGGAUUCUGCUGUAUAUCCC [A21G U25C U54A A64G U80C] | 0.13

Row | Variant | self-cleavage
18 | UAACAGGGGGCCACAGCAGAGGCGCUCACGUCGCAGCCCCUGUCAGAUUCUGGCGAAUUUGCGAAUUCUGCCGUAUAUCUC [A21G U25C U54C C59U U72C] | 0.1
19 | UAACAGGGGGCCACAGCAGAGGCGCUCACGUCGCAGCCCCUGUCAGAUUCUGGUGAAUCCGCGAAUUCUCCUGUAUAUCUC [A21G U25C U60C G70C] | 0.08
20 | UAACAGGGGGCCACAGCAGAGGCGCUCACGUCGCAGCCCCUGUCAGAUUCUGGUGAAUCUGCGAAUUCUGCCGUGUAUCUC [A21G U25C U72C A75G] | 0.06
21 | UAACAGGGGGCCACAGCAGAGGCGCUCACGUCGCAGCCCCUGUCAGAUUCUGGUGAAUCUGCGAAUUCUGCUGUAUAACUC [A21G U25C U78A] | 0.35
22 | UAACAGGGGGCCACAGCAGAGGCGGUCACGUCGGAGCCCCUGUCAGAUUCUGGUGAAUCUGCGAAUUCUGCUGUAUAUCUC [A21G U25G C34G] | 0.14
23 | UAACAGGGGGCCACAGCAGAGGCGGUCACGUCGCAGCCCCUGUCAGAUUCUGGAGAAUCUGCGAAUUCUGCUGUAUAUCUC [A21G U25G U54A] | 0.38
24 | UAACAGGGGGCCACAGCAGAGGCGUACGCGUCGCAGCCCCUGUCAGAUUCCGGUGAAUCUGCGAAUUCUGCUGUAUAUCUC [A21G U26A A28G U51C] | 0.05
25 | UAACAGGGGGCCACAGCAGAGGCGUACUCGUCGCAGCCCCUGUCAGAUUCUGGUGAAACUGCGAAUUCCGCUGUAUAUCUC [A21G U26A A28U U58A U69C] | 0.11
26 | UAACAGGGGGCCACAGCAGAGGCGUACACGUCGCGGCCCCUGUCAGAUUCUGGUGAAUCUGCGAAUUAUGCUGUAUAUCUC [A21G U26A A35G C68A] | 0.51
27 | UAACAGGGGGCCACAGCAGAGGCGUACACGUCGCAGCUCCCGUCAGAUCCUGGUGAACCUGCGAAUUCUGCUGUAUAUCUC [A21G U26A C38U U41C U49C U58C] | 0.05
28 | UAACAGGGGGCCACAGCAGAGGCGUACACGUCGCAGCCCCUGCCAGAUUCUGGCGAAUCUGCGAAUUCUGCUGUAUAUCAC [A21G U26A U43C U54C U80A] | 0.08
29 | UAACAGGGGGCCACAGCAGAGGCGUACACGUCGCAGCCCCUGUCAGAUUCCGGUGAAUCUGCGAAUUCUGCUGUAUAUCUC [A21G U26A U51C] | 0.35
30 | UAACAGGGGGCCACAGCAGAGGCGUCCUCGUCGCAGCCCCUGUCAGAUUCUGGUGAGUCUGCGAAUUCUGCUGUAUAUCUC [A21G U26C A28U A57G] | 0.08
31 | UAACAGGGGGCCACAGCAGAGGCGUCCACGUCGCAGCCCCUGUCAGGUUCUGGUGAAUCUGCGAAUUCUGCCGUAUCUCUC [A21G U26C A47G U72C A77C] | 0.04
32 | UAACAGGGGGCCACAGCAGAGGCGUCCACGUCGCAGCUCCUGUCAAAUACUGGUGAAUCUGCGAAUUCUGCUGUAUAUCUC [A21G U26C C38U G46A U49A] | 0.04
33 | UAACAGGGGGCCACAGCAGAGGCGUCCACGUCGCAGCCCCUGCCAGAUUCUGGUGAAUCUGCGAAUUCUGCUGUAUAUCUC [A21G U26C U43C] | 0.18
34 | UAACAGGGGGCCACAGCAGAGGCGUCCACGUCGCAGCCCCUGUCAGAUCCUGGUGAAUCUGCGAAUUCUGCUGUGUAUCCC [A21G U26C U49C A75G U80C] | 0.04
